Experimental data reported in the supplement of paper PMC3334620.
Whole data set: some 33,000 sequences, median “E-score (-0.5 to 0.5)” near -0.054, cut for the highest 2% near 0.39. The list shows a part of the results.

The sequences below were run against Ylr278c (UniProt Q05854) (assay: PBM E-score (8-mer binding enrichment) (E-score (-0.5 to 0.5)); higher = stronger / more preferred TF binding; most listed sequences are background and not binding sites). Conditions: protein concentration: 200 nM; construct: GST-DNA-binding domain.
Outline: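 Each ungapped eight-base word and its reverse complement, pooled, received an E-score from the Universal PBM Analysis Suite. Underlying scans, normalised with masliner, recorded fluorescent anti-GST bound to GST-tagged yeast transcription factors. These were applied at about 100-200 nM to universal all-10-mer Agilent arrays double-stranded by primer extension.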

Point of comparison: AACCAAGC, “PBM E-score” value -0.08. Against it:
- CACGTTAG — lower, -0.316
- GTCAACTA — lower, -0.084
- ACAGCGGT — higher, 0.105
- GGCGTTAA — higher, 0.123
- ATCACGGA — higher, 0.365
- CCGTGTCG — higher, 0.256
- ACAGAGCC — lower, -0.14
- ACTCGATA — lower, -0.109
- CATCGAAA — lower, -0.126
- AATGTCGG — higher, 0.249
- CCCCTATA — lower, -0.0889
- AATACGCG — higher, 0.00014
- TATCATCA — higher, -0.0335
- ATATTGGG — higher, -0.00985
- CCAAAGCG — higher, 0.13
- CATGTCAA — lower, -0.335
- AGTTAACT — higher, 0.0572
- GAATCAGC — lower, -0.14
- AATGACCC — lower, -0.1
- AGAGCGCG — higher, 0.104
- ATCTCAAC — higher, -0.00641
- ACAGGGTG — lower, -0.265
- CCCTATTA — lower, -0.126
- CAGGCCAA — lower, -0.16
- AAGTCCCT — lower, -0.213
- TCCCCTCA — higher, -0.034
- GGAGAAGA — higher, 0.192
- CTTTGCTA — lower, -0.178
- GCGTTTAC — higher, 0.0879
- CGCCGTAA — higher, 0.28
- AAACTCGA — higher, -0.0721
- CTGCTCGA — lower, -0.203
- ACCATATG — lower, -0.271
- TAGCCCCA — higher, 0.00983
- CAGAAGAC — lower, -0.205
- CGCGTGCC — higher, 0.0926
- AGGTCCAG — lower, -0.113
- CCCCCTCC — lower, -0.0916
- GTGAGGCA — higher, -0.0777
- CTAAGGAA — lower, -0.113
- ACACATGG — lower, -0.187
- ATGTGCCC — higher, -0.0158
- CCTGAGTC — lower, -0.102
- GAGAACGC — higher, 0.0273
- GCTTAAAC — lower, -0.156
- CCGCATAG — higher, 0.247
- CTCGCCAA — higher, 0.00031
- ACCATGTA — lower, -0.101
- ATTTGGTG — lower, -0.127
- ATTCCGTA — higher, 0.33
- ATCACCGG — higher, 0.325
- CATTACTC — higher, -0.0235
- AGGAGCAG — higher, -0.00465
- GTAATGAA — lower, -0.153
- AAACCATT — lower, -0.217
- GCTCACGA — lower, -0.286
- GATTGTCC — higher, 0.223
- CCGCCGGA — higher, 0.462
- ATGCGTGA — lower, -0.111
- ATGCTGTC — lower, -0.157
- ACAGTTAC — higher, -0.0401
- AACCACGC — lower, -0.137
- CTATGGTA — lower, -0.0832
- ACAATATC — higher, -0.0104
- CGGTCGGA — higher, 0.385
- CGCGTACA — lower, -0.0824
- AGTGCGTC — lower, -0.101
- GACCATAA — lower, -0.23
- TAAAGGAA — lower, -0.152
- CGTAGACC — lower, -0.13
- AGCGTTCG — lower, -0.199
- ATAGGGCG — higher, 0.0869
- ATAAGCCA — lower, -0.297
- ACAGGTGG — lower, -0.17
- CGCCCACA — higher, 0.0294
- AAGGTAGC — lower, -0.275
- CCTGCACG — lower, -0.232
- ATGCTACA — lower, -0.284
- CTATTGAC — lower, -0.116
- CGTAAGAA — higher, 0.0411
- AGAGCTGC — higher, -0.0659
- AGTATAGC — lower, -0.122
- GATAATCC — higher, 0.315
- GCCCCGCC — higher, 0.292
- CCTTCATA — higher, -0.029
- ACTAACGA — lower, -0.183
- CGTCGTGA — higher, -0.0274
- AGGGGACT — lower, -0.134
- GTGCGCAA — higher, 0.0414
- ACCTTTGG — lower, -0.219
- GAGTTAGC — higher, 0.0106
- TCCCTCGA — lower, -0.0806
- CGAACGCG — higher, 0.117
- GCAACTAA — higher, 0.0955
- CGTTTCGC — higher, 0.0401
- CAAGAAGC — higher, -0.0334
- AGGCCTCA — lower, -0.18
- AGTAAACA — higher, 0.0332
- GTCGTCTA — higher, -0.0115
- CCCCGGAC — higher, 0.388
- CACCCGGA — higher, 0.365
- CTTACAGC — lower, -0.265
- CCACTCAG — lower, -0.239
- CAACGGAG — higher, 0.368
- CTTACTAC — higher, -0.064
- ATCGCCCC — higher, -0.0218
- GGAGGGAC — higher, 0.0906
- CAGGACTG — lower, -0.287
- ATTTTTGG — lower, -0.0911
- ACTAGTGC — higher, -0.0271
- ACACTAAC — higher, 0.0293
- CACACCCA — lower, -0.107
- CGATAGAC — higher, -0.0741
- GTCTCCAA — lower, -0.111
- CCGACGTA — higher, 0.284
- GTACTAAA — higher, -0.061
- CCTCCTAC — lower, -0.0963
- ACGCACCC — higher, -0.0749
- CTCTGTAC — lower, -0.193
- ATCAGAAT — lower, -0.0859
- CTACGTTC — lower, -0.177
- AGCCCGCC — higher, 0.228
- GAACGCTC — lower, -0.135
- AGCAATCA — lower, -0.118
- ATATGACC — lower, -0.0965
- CTTCATGA — lower, -0.0816
- CAGCATGG — higher, -0.0297
- GAAATACC — higher, 0.228
- GAAGCCCC — higher, 0.194
- AGGCAGGG — lower, -0.137
- AGGAGAGG — lower, -0.329
- CAGCGAGC — higher, -0.0547
- ATAGGAAT — lower, -0.133
- ACGCGGAG — higher, 0.421
- CGGTCCCC — higher, 0.216
- GACCAGAC — lower, -0.18
- AGGAGATA — higher, -0.016
- GGGCCGTA — higher, 0.0879
- CGTCTTAG — lower, -0.145
- ATAGCAGG — higher, 0.0173
- AACTCAGG — lower, -0.143
- CGCTGTAG — higher, -0.0629
- CGCCTTGC — higher, -0.0411
- TGACGTAA — lower, -0.185
- AGGATTTG — lower, -0.171
- AATAATTC — higher, 0.171
- ATCCCTGC — lower, -0.115
- ACCCAGAA — lower, -0.176
- AAATTAGG — higher, 0.129
- AGGACTAC — lower, -0.16
- AAGAGTCC — higher, 0.0347
- ATTTAGGA — lower, -0.183
- CAGGCACC — lower, -0.174
- GCCTCTGA — lower, -0.256
- ATAATGAA — higher, -0.0289
- CTCGTCAG — lower, -0.213
- CCGCTCTC — higher, 0.0728
- ACATGCCA — lower, -0.0815
- GGGGGAGA — higher, 0.0467
- ATTCGACA — lower, -0.191
- AGGACGGC — higher, -0.0301
- AGCCGCGG — higher, 0.361
- GCTAGGCA — lower, -0.101
- ACACCTTC — higher, 0.0333
- AGGAAGGA — lower, -0.36
- AACCCTTA — lower, -0.138
- TACAGCAA — lower, -0.103
- CGGGTTCC — higher, 0.294
- AACTGAAC — higher, 0.0386
- CCAGCTGA — lower, -0.132
- CATAAAAC — higher, 0.0973
- ATATGACA — lower, -0.225
- CTACCACA — lower, -0.278
- CATGGCGA — lower, -0.0973
- ATGTTGGG — higher, -0.0409
- CCGCCTGC — higher, 0.00278
- CCACTCAA — lower, -0.274
- GAATTTAA — higher, -0.0111
- GTCGCCAA — lower, -0.254
- TCACAACA — lower, -0.175
- CATCTGTA — lower, -0.209
- AGTGGCTC — lower, -0.117
- AAGAACTA — higher, -0.0398
- AGGTACAG — lower, -0.258
- CACCAACA — higher, -0.074
- GATATTGA — higher, 0.0976
- TCGAGTCA — lower, -0.195
- TAGAAACA — lower, -0.168
- CTACGCAG — lower, -0.155
- CGTCTGGC — higher, 0.0246
- ATCGCAGC — higher, -0.076
- GCTGTAAA — lower, -0.312
- ATACACAA — lower, -0.169
- AAACGGGG — higher, 0.2
- CCGGCAGC — higher, 0.322
- AGGCTCCG — higher, 0.39
- CTTAATCA — higher, 0.015
- AACGTTGC — lower, -0.126
- AGCAGCGA — lower, -0.0853
- ACGACATA — lower, -0.293
- GCAAACCC — higher, 0.153
- GTAAGGGA — lower, -0.0823
- AAACGGGT — higher, 0.0649
- CCTATAGG — higher, -0.0702
- CACCGCCC — higher, 0.218
- CTTGCTGA — lower, -0.226
- CGAGTGTA — lower, -0.161
- CGCGAGTC — higher, 0.129
- ACACGGAT — higher, 0.199
- CTAGGACA — lower, -0.135
- ACAATACT — higher, -0.0192
- AAGCTTCA — lower, -0.0959
- TGCATAAA — lower, -0.105
- GGTTGTCA — lower, -0.124
- AGGACCTC — higher, -0.0432
- AAGACTCT — lower, -0.202
- AGTTCCGA — higher, 0.43
- ACTTCGTC — higher, 0.0646
